Assay results as given in ChEMBL document CHEMBL1157539, “Thousands of chemical starting points for antimalarial lead identification” (Nature, 2010).
In all, about 13,000 compounds were measured (“IFI”: median about 4, highest 2% from about 17 on). The list shows a part of the results.

Assay: GSK_TCMDC: Inhibition Frequency Index (IFI). The number of non-kinase HTS assays where a compound showed > 50 % inhibition, expressed as a percentage of the number of such assays in which the compound was tested (-0 is zero)
Format: functional

| SMILES | IFI |
| --- | --- |
| COc1ccc2nccc([C@@H](O)CN3CCC(NCc4nc5ccccc5[nH]4)CC3)c2c1 | 1.44% |
| COc1ccc2c(NN=Cc3ccc(F)cc3)ccnc2c1 | 6.92% |
| O=C(Nc1cccc(C(F)(F)F)c1)Nc1ccc(Cl)c(C(F)(F)F)c1 | 16.7% |
| O=C(NCc1ccccc1[S+]([O-])c1ccccc1CO)C(F)(F)F (centres undefined) | 3.01% |
| O=C(c1ccccc1[N+](=O)[O-])N(Cc1ccccc1)c1ccccn1 | -0% |
| CN1CCC(N2CCN(c3ccc4c(=O)nc(CCc5cccc(F)c5F)n(CC(=O)N(C)Cc5ccc(-c6ccc(C(F)(F)F)cc6)cc5)c4n3)CC2)CC1 | 13.2% |
| O=C(N[C@H]1CCN(Cc2ccc(OCCCN3CCCCC3)cc2)C1)c1cc(Cl)cc(Cl)c1 | 5.44% |
| COc1cccc(OCC2CCCN(CCCCNC(=O)c3ccc(NC(=O)c4ccc(Cl)cc4)cc3)C2)c1 (centres undefined) | 7.02% |
| CC(=NNC(S)=Nc1ccccc1Cl)c1ccccn1 | 6.57% |
| CN1CCN(c2ccnc3ccc(NC(=O)Nc4ccc(Cl)c(Cl)c4)cc23)CC1 | -0% |
| Cc1ccccc1C1CCN(C2CCC(NC(=O)c3cc(-c4ccc(Cl)cc4)cs3)CC2)CC1 (centres undefined) | 22.4% |
| CNC(=O)c1cnc(Nc2ccc(OCC(O)CN(C)C)cc2)nc1Nc1cccc([N+](=O)[O-])c1 (centres undefined) | 4.96% |
| N#Cc1cccc(-c2nc(NCc3cccc(C(F)(F)F)c3)nn2-c2cccc(C(F)(F)F)c2)c1 | 1.43% |
| Fc1ccc2ncc(Cl)c(CCN3CCC(NCc4cc5c(cn4)OCCO5)CC3)c2c1 | 0.72% |
| CC1(CCc2ccccc2)N=C(N)N(Cc2ccccc2)C(=O)C1c1ccc(Cl)c(Cl)c1 (centres undefined) | 19.2% |
| OCC1CCN(Cc2ccc(-c3ccc(-c4nc5cc(C(F)(F)F)ccc5[nH]4)s3)cc2)CC1 | 3.92% |
| Nc1nnc(-c2ccc(Cl)c(Br)c2)c(N)n1 | 2.01% |
| O=C(NC1CCCCC1)N(Cc1ccc(-c2cccc(CNCc3ccc4c(c3)OCO4)c2)cc1)C1CCN(Cc2ccccc2)CC1 | 6.98% |
| COc1ccccc1CCCN1C(=O)C(c2ccccc2)(c2ccccc2)N=C1N | 22.3% |
| Cc1ccc2c(=NN=Cc3cccc(Cl)c3)cc(C)[nH]c2c1 | 10.1% |
| CCc1cc(Br)c2c(c1)C(NCCCNc1cc(=O)c3ccccc3[nH]1)CCN2 (centres undefined) | 4.83% |
| COc1ccc2nccc(NCC3(O)CCN(CC(O)c4ccc5c(c4)NC(=O)CS5)CC3)c2n1 (centres undefined) | 0% |
| CCCCCCCN1CC[C@@H](CCCc2ccnc3ccc(OCCN4CCNCC4)cc23)[C@@H](CC)C1 | 9.49% |

| SMILES | IFI |
| --- | --- |
| Cn1cc(C2CCN(CCCCNC(=O)c3ccc(C(=O)Nc4ccc(C#N)cc4)cc3)CC2)c2ccccc21 | 3.57% |
| O=C(Cn1c(=O)cnc2ccccc21)Nc1cccc(C(=O)Nc2cccc(C(F)(F)F)c2)c1 | 0% |
| O=C(NC1CCC(CCN2Cc3ccc(Br)cc3C2)CC1)c1cccc(-c2cccnc2)c1 (centres undefined) | 2.16% |
| Cc1n[nH]c2cc(F)c(-c3cc(OC[C@@H](N)Cc4ccccc4)cnc3-c3ccoc3)cc12 | 11.9% |
| O=C(Nc1ccc(Cl)cc1)Nc1ccc(-c2cccc(-c3nc4cc(F)ccc4[nH]3)c2)cc1 | 4.04% |
| CCOc1ccc2nc3cc([N+](=O)[O-])ccc3c(N)c2c1 | 6.34% |
| CCN(CC)CCCNc1ncc2c(-c3ccc(NC(=O)Nc4cc(C(F)(F)F)ccc4F)c(F)c3)nn(C)c2n1 | 12.9% |
| COc1ccc(Cl)cc1N1CCN(CCCNC(=O)c2ccc(-c3nc4c(C)cccc4[nH]3)s2)CC1 | 1.5% |
| Cn1c(=O)c2nc(-c3ccc(Cl)cc3)nnc2n(CCCC#N)c1=O | -0% |
| CC(C)n1ncc2c(C(=O)N3CCCCCC3)cc(-c3ccccc3)nc21 | 1.49% |
| CC(=O)Nc1ccc(OCCN(Cc2ccccc2OC(F)(F)F)c2ccc(C(F)(F)F)c(C#N)c2)c(Cl)c1 | 0% |
| CCCCCCN1CCN(Cc2cccc(NC(=O)c3cc4ccccc4s3)c2)CC1 | 4.79% |
| Cc1ccc(Nc2nccc(NCC(O)c3cccc(C(F)(F)F)c3)n2)cc1 (centres undefined) | 17.9% |
| CCC[C@@H]([C@@H](CC1CCC(C)CC1)C(=O)N[C@@H](CCCCNC(=O)c1ccccn1)C(=O)Nc1nccs1)N(O)C=O (some centres undefined) | 4.76% |
| Cc1ccccc1C1CCN(C2CCC(NC(=O)c3ccc4c(c3)-c3nocc3C(C)O4)CC2)CC1 (centres undefined) | 10.2% |
| O=C(/C=C/c1ccc(Cl)c(Cl)c1)N1CCC(CN2CCC(c3c[nH]c4ncccc34)CC2)CC1 | 2.34% |
| COc1cc(C=CC(=O)N2CCC(CCN3CCC(c4c[nH]c5ccccc45)CC3)CC2)cc(OC)c1 | 6.43% |
| CS(=O)(=O)CCNCc1nc(-c2ccc3c(Nc4ccc(Oc5ccccn5)cc4)ccnc3c2)cs1 | 2.94% |
| Cc1cc(NC2CCN(Cc3ccccc3)CC2)nc(NCCCCc2ccccc2)n1 | 10.6% |
| N#Cc1ccc(N/C(=N\c2cccc(Cl)c2Cl)NCc2ccc(Cl)cc2Cl)c(O)c1 | 5.8% |
| O=C(Nc1ccc(CN2CCN(S(=O)(=O)c3ccc(Cl)s3)CC2)cc1)c1cccs1 | 2.29% |
| Cc1ccc(Cl)c2sc(N3CCN(C(=O)c4ccc([N+](=O)[O-])o4)CC3)nc12 | 6.54% |
| O=S(=O)(Nc1cccc(CCN2CCC(N3CCCCC3)CC2)c1)c1ccc(-c2ccccc2)cc1 | 9.68% |

| SMILES | IFI |
| --- | --- |
| CC(C)NCc1cccc(-c2ccc(NC(=O)c3ccc(C#N)cc3)cc2)c1 | 0.98% |
| O=C(Nc1cccc(CN2CCCN(Cc3ccc(O)cc3)CC2)c1)c1ccc2ccccc2n1 | 3.08% |
| CC(=O)Nc1nc(C(=O)Nc2ccc(-c3ccc(-c4nc5cccc(C)c5[nH]4)cc3)cc2)cs1 | 5.17% |
| N#Cc1cccc(C(=O)Nc2ccc(-c3cccc(CN4CCCC4)c3)cc2)c1 | 3.96% |
| O=C(Nc1ccc(C(F)(F)F)cc1)NC1CCN(c2ccnc3cc(Cl)ccc23)C1 (centres undefined) | 4.41% |
| COc1ccc(Nc2nccc(N3CCC(NC(=O)c4cc5ccccc5s4)C3)n2)cc1 (centres undefined) | 4.55% |
| CN(C)CCN(C)Cc1ccc(-c2cccc(NC(=O)c3cccc(C#N)c3)c2)cc1 | 1.92% |
| O=C(Nc1ccc(Oc2ccccc2)cc1)N(CCN1CCCC1)Cc1ccc(-c2ccc(CN3CCNCC3)cc2)cc1 | 8.84% |
| FC(F)(F)c1cc(Nc2ncnc3ccc(Br)cc23)ccc1OCc1ccccc1 | 2.19% |
| CCCCCCCN1CC[C@@H](CCCc2ccnc3ccc(OCCC4CCNCC4)cc23)[C@@H](CC)C1 | 10.9% |
| Cc1ncc(CN2CCC(C(=O)Nc3ccc(-c4nc5ccccc5o4)cc3)CC2)s1 | -0% |
| O=C(Cc1ccc(Nc2nccc(Nc3cccc4[nH]ncc34)n2)cc1)Nc1ccc(C(F)(F)F)cc1 | 10% |
| CCN(Cc1cccc2ccccc12)c1ccc2nc(N)nc(N)c2c1 | 13.3% |
| Cc1cc(NC(=O)c2ccco2)ccc1OC1CCN(Cc2ccc(C#N)cc2)CC1 | 1.59% |
| Cc1ccccc1C1CCN(C2CCC(NC(=O)/C=C/c3c[nH]c4ccccc34)CC2)CC1 (centres undefined) | 7.14% |
| COc1ccc(-c2cccc(NC(=O)c3cccc(C#N)c3)c2)cc1CN1CCCN(C)CC1 | 5.88% |
| c1ccc(CN2CCC(NCc3ccc(-c4ccc(CNC5CCCC5)cc4)cc3)CC2)cc1 | 4.17% |
| CN(C)CCN1CCN(Cc2cccc(-c3csc(-c4nc5ccccc5[nH]4)c3)c2)CC1 | 9.33% |
| CCCN1CC[C@@H](CCCc2ccnc3ccc(O)cc23)[C@@H](CC)C1 | 1.41% |
| COc1ccc2[nH]c(C)cc(=NN=Cc3ccc(F)cc3)c2c1 | 3.01% |
| Cc1ccc(-n2cc(CNCCc3nc(C)c[nH]3)c(-c3ccc(F)cc3)n2)cc1 | 13.6% |
| O=C(Nc1cccc(C(F)(F)F)c1)Nc1ccc(F)c([N+](=O)[O-])c1 | 15.8% |
| OCC1CCN(Cc2ccc(-c3ccc(-c4nc5cc(F)ccc5[nH]4)cc3)cc2)CC1 | 2.94% |

| SMILES | IFI |
| --- | --- |
| CCN(CCCN1CCCCC1)c1cc(C)nc(Nc2ccc(C)cc2Cl)n1 | 2.56% |
| Cc1nc(-c2cccc(Nc3nccc(NCC(O)c4ccc(C(F)(F)F)cc4)n3)c2)cs1 (centres undefined) | 12% |
| CCCC(C)Nc1nc(C)cc(N[C@@H](Cc2ccccc2)C(=O)NCCOc2ccccc2)n1 (some centres undefined) | 9.09% |
| C#CCOc1ccccc1CN1CCC(N2CCc3cc(NC(=O)c4cc(C)on4)ccc32)C1 (centres undefined) | 0% |
| COc1ccc2[nH]c(C)cc(=NN=Cc3ccccc3Cl)c2c1 | 1.5% |
| Cc1cnc(C(=O)Nc2cccc(-c3ccc(-c4nc5cc(F)ccc5[nH]4)cc3)c2)cn1 | 4.46% |
| Cc1[nH]c(C)c(-c2ccc(-c3ccccc3Cl)nc2)c(=O)c1Cl | 0% |
| CCNc1cc(C(=O)N[C@@H](Cc2ccc(F)c(F)c2)[C@H](O)CNCc2cccc(OC)c2)cc(N2CCCCS2(=O)=O)c1 | 3.57% |
| Clc1ccc(C=NNc2ccnc3cc(Cl)ccc23)cc1 | 3.03% |
| COC(=O)CNC(c1ccccc1)c1cc(Br)ccc1NC(=O)c1ccccc1Br (centres undefined) | 0.76% |
| CO/C(=C\C=C\c1cc2cc(Cl)c(Cl)cc2[nH]1)C(=O)NCCCN(C)CCN(C)c1ccccc1 | 10% |
| COc1ccccc1C1CN(CCNC(=O)c2nc(C)c[nH]2)Cc2ccccc2O1 (centres undefined) | -0% |
| CCn1c(-c2cc(C)on2)nc2cnc(Oc3ccc(C(=O)N4CC(=O)N(C)C4C(C)(C)C)cc3)cc21 (centres undefined) | 7.14% |
| COc1ccc2nccc([C@@H](O)CN3CCC(NCCOc4ccccc4C#N)CC3)c2c1 | 2.21% |
| Cn1cncc1C(=O)Nc1cccc(-c2ccc(-c3nc4ccccc4[nH]3)s2)c1 | 0.9% |
| CC(C)(C)c1ccc(CN2CCCCC(NC(=O)c3cc(-c4ccccc4F)cs3)C2)cc1 (centres undefined) | 5.45% |
| COc1ccc(CNC2Cc3ccccc3C2)cc1-c1ccc(S(=O)(=O)NCCN2CCCC2)s1 | 12.8% |
| Cc1cc(-c2nc3cc(C(=N)N)ccc3[nH]2)c(C)cc1-c1nc2cc(C(=N)N)ccc2[nH]1 | 7.14% |
| O=C(c1ccc2ccccc2n1)N1CCCc2cc(Br)ccc21 | 2.38% |
| CC[C@@H]([C@@H](Cc1cc2ccccc2s1)C(=O)N[C@@H](CCCCNC(=O)OCc1ccccc1)C(=O)Nc1ccccn1)N(O)C=O | 2.27% |
